Measured values published in PubChem BioAssay AID1768 (National Center for Advancing Translational Sciences (NCATS), 2009).
Several values for one entry are separate records, joined by “and”; a condition that tells them apart may be missing. Equal values may be shown once. About 620 (0.23%) of roughly 270,000 compounds were called active. The inconclusive results got no clear call from the source; some entries with a clear call stand among them for comparison. Calls come from the whole dose curve; as a rule, active = well fitted inhibition curve with a large enough effect in the polarisation, with a control signal flat (not every such curve was filed as active); inconclusive = small, poorly fitted or top-dose-only effect, or effect the other way, or a change in a side signal; inactive = no such curve, though single readings can be large or run the other way; the % refers to the polarisation. Potencies beside an inconclusive call are fits to weak or partial responses and may not hold up. A note “side channel” means that the fit belongs to a control or component signal, not to the main read-out.

Target: Menin (Homo sapiens) (UniProt O00255)
Chain of UniProt O00255 (O00255 whole entry, looked up): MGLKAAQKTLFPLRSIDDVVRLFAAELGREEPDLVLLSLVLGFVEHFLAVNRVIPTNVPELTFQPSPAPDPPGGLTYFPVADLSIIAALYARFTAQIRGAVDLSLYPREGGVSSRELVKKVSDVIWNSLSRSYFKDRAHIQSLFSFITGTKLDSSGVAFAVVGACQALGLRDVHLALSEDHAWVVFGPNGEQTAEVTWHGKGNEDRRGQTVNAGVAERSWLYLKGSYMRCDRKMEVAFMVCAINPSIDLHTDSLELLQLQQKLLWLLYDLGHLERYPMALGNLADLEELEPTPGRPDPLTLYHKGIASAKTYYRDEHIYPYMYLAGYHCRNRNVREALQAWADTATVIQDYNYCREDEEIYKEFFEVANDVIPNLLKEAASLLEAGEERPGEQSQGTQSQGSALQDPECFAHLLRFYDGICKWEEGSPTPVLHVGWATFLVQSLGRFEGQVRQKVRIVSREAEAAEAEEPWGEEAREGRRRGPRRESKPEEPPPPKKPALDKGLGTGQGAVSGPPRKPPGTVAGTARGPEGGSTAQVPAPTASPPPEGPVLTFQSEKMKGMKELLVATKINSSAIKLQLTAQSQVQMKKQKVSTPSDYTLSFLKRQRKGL
Assay: qHTS Assay for Inhibitors Targeting the Menin-MLL Interaction in MLL Related Leukemias: Competition With Texas Red Labeled MLL-derived Mutant Peptide; for FP activity change, negative = inhibition: % of control where 0% means no effect
Details: fluorescence polarization; FP activity change, negative = inhibition: at 61.6 µM (top of the series)
Potency is the fitted concentration of half-maximal effect; tags give direction and shape of the fitted curve or compound fluorescence and quenching.

Potency, inconclusive:
COc1c(OC)c(O)c2c(=O)cc(-c3c(O)cccc3O)oc2c1OC 10 µM [quencher, side channel, partial curve]
COc1ccc(-n2c(=O)c(-c3cccs3)nc3cnc(Nc4cccc(OC)c4)nc32)cc1 2.82 µM [quencher, side channel, full curve]
O=C(Nc1ccc(Br)cc1)Nc1ccccc1F 8.91 µM [quencher, side channel, full curve]
Cc1ccc(-c2csc(N3N=C(c4ccccc4)/C(=C\c4ccc(N(C)C)cc4)C3=O)n2)cc1 11.2 µM [quencher, side channel, partial curve]
O=C(N/N=C/c1c[nH]c2ccccc12)C1CC1(c1ccccc1)c1ccccc1 (stereo not given) 12.6 µM [quencher, side channel, partial curve]
COc1ccc(-c2coc3cc(O)cc(O)c3c2=O)cc1 31.6 µM [quencher, side channel, single point] and 10 µM [quencher, side channel, partial curve] and 35.5 µM [quencher, side channel, single point]
CCCCC(O)(c1ccc(CC)cc1)C(CN1CCOCC1)c1ccccc1 (stereo not given) 8.91 µM [fluorescent, full curve]
CC(=O)OCCN(C)c1cc(SC(C)C)c2nonc2c1[N+](=O)[O-] 28.2 µM [quencher, side channel, partial curve]
O=c1c2c(nc3n1CCCCC3)-c1ccccc1CC21CCCC1 10 µM [fluorescent, side channel, partial curve]
COc1ccc(C(=O)OCC(=O)Nc2c(C)cccc2C)c(OC)c1OC 25.1 µM [fluorescent, side channel, single point]
O=C(CSc1nnc2c(n1)[nH]c1ccccc12)Nc1ccc(S(=O)(=O)Nc2ncccn2)cc1 8.91 µM [quencher, side channel, partial curve]
COc1cc(NC(=O)Cc2ccccc2OC)cc(OC)c1 31.6 µM [fluorescent, side channel, single point]

FP activity change, negative = inhibition, inactive:
CCCCCCCCCCCCCCCCC(C(=O)O)C(O)(CC(=O)O)C(=O)O (stereo not given) -10.5%
COc1ccc(OC(=O)c2cccc(S(=O)(=O)N3CCCC3)c2)cc1 6.39%
CCOC(=O)c1oc2ccc(OC)cc2c1NC(=O)CN1CCN(C)CC1 1.2%
